# According to the supplement of paper PMC8728848:
# The list shows a part of the results.
# Columns and labels:
# Assay in all cases: glycan array binding signal (z-score within array); higher = stronger binding
# Conditions in all cases: glycan notation: IUPAC condensed, linker removed
# [1] = biological target: Neu5Gc(a2-8)Neu5Gc(a2-3)Gal(b1-4)GlcNAc(b1-3)Gal(b1-4)GlcNAc
# Outline: (§1)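 Glycan array data came from 3228 arrays in the Consortium for Functional Glycomics database, and only arrays with an available protein sequence were kept. Glycan names were put into IUPAC-condensed notation, and columns mapping to the same glycan were averaged. The binding signal is a within-array Z-score, averaged across arrays of one protein sequence run at different concentrations or buffers and across linkers. A negative Z-score can be read as non-binding.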
# [2] = biological target: Neu5Gc(a2-8)Neu5Gc(a2-6)Gal(b1-4)GlcNAc
# Outline: as §1
# [3] = biological target: Neu5Gc(b2-6)Gal(b1-4)GlcNAc
# Outline: as §1
binder,measurement,setting,value
Epa12 (Candida glabrata) (protein) MGSSHHHHHHSSGLVPRGSHMLEPDNSLQIFDSFLSNPSKYPLGCSPKITNPKKGLSMELYSYPYRKKGSHPCWDPAYLDPNFPRVGYKKNKLIARVDGVSGDINFNFHPKRQCTPIADYLPPNFNYNEPITTTNFTMLLYGYFKPKVTGLHTFDISADDLLFMNFGAGNAFDCCRRDSTADTFGNYVAWAIWGRRIVRNKLTVRLDKGIYYPLRLFFNNRDYYGQMRLTFKTEHGSERITDFSDYFFSVDDTSEGCPGLITYESECADVKSSTVLETDYITIQAEKE,glycan array binding signal (z-score),[1],-0.326
same,glycan array binding signal (z-score),[2],-0.366
same,glycan array binding signal (z-score),[3],-0.224
